Test results from PubChem BioAssay AID588855 (National Center for Advancing Translational Sciences (NCATS), 2011).
Out of some 410,000 compounds screened, about 5,000 (1.2%) were called active. The inconclusive results got no clear call from the source; some entries with a clear call stand among them for comparison. Calls come from the whole dose curve; as a rule, active = well fitted inhibition curve with a large enough effect; inconclusive = small, poorly fitted or top-dose-only effect; inactive = no such curve, though single readings can be large or run the other way. Potencies of inconclusive entries are doubtful fits and often do not repeat.

test: qHTS for Inhibitors of TGF-b; details: HepG2 CAGA-GFP TGF-b/SMAD3 reporter, GFP fluorescence, 18 h, TGF-beta stimulated, 500 pg/mL final; series mostly up to 46.1 µM; note: nearly all actives have a fitted effect of over 65% in size
Procedure, shortened: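 Inhibition of TGF-beta-driven CAGA-GFP reporter expression in HEPG2 cells is measured by cellular GFP fluorescence after 18 h stimulation with 500 pg/mL recombinant TGF-beta in 1% FBS medium at 37 degrees C.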
Potency is the fitted concentration of half-maximal effect; tags give direction and shape of the fitted curve.

SMILES	Potency
CCC(CC)C(=O)Nc1nnc(S(=O)(=O)N2c3ccccc3CC2C)s1 (configuration not stated)	inconclusive: 0.891 µM [inhibitor, partial curve, poor fit]
CC(C)OC(=O)c1ccc(NC(=O)c2cncc(Br)c2)cc1	inconclusive: 0.501 µM [inhibitor, full curve, poor fit]
CCOCCCn1c(=N)c(C(=O)NC(C)c2ccccc2)cc2c(=O)n3cccc(C)c3nc21 (configuration not stated)	inconclusive: 25.1 µM [inhibitor, single point]
CCOC(=O)C1=C(CC)Nc2ccccc2N/C1=N\S(=O)(=O)c1cc(Br)ccc1Br	inconclusive: 25.1 µM [inhibitor, partial curve, poor fit]
N#Cc1c(-c2ccccc2)c(-c2ccccc2)nn(CC(=O)NNC(=O)Nc2ccc(Cl)cc2)c1=O	inconclusive: 25.1 µM [inhibitor, single point]
COc1cc2ncc3c(-c4ccccc4)nn(CC(=O)NC4CCCCC4)c3c2cc1OC	inactive
CC1CCN(S(=O)(=O)c2cc(C(=O)NCc3ccccc3)n(C)c2)CC1	inactive
N#Cc1cn(CCOc2ccc(F)cc2)c2ccccc12	inconclusive: 25.1 µM [inhibitor, single point]
OC(c1ccccc1)(c1nc(-c2cccc3cccnc23)cs1)C(F)(F)F (configuration not stated)	inconclusive: 35.5 µM [inhibitor, single point]
O=S(=O)(c1ccc(Br)cc1)c1nnn2c1nc(NCCc1ccccc1)c1sccc12	inconclusive: 2.82 µM [inhibitor, single point]
Cn1c(/C=N/Nc2nc3ccccc3[nH]2)nc2ccccc21	inconclusive: 12.6 µM [inhibitor, partial curve, poor fit]
COc1ccc(CCCc2n[nH]c(=S)n2C)cc1C	inactive
Fc1cccc2sc(Nc3nc4cc5c(cc4s3)OCO5)nc12	inconclusive: 6.31 µM [inhibitor, single point]
COc1ccc(N2C(=O)CCSC23C(=O)N(Cc2ccc(F)cc2)c2ccccc23)cc1 (configuration not stated)	inconclusive: 35.5 µM [inhibitor, partial curve, poor fit]
CCc1ccc(-n2nc(CO)c(C(=O)NCc3cccnc3)n2)cc1	inconclusive: 22.4 µM [inhibitor, partial curve, poor fit]
O=C(c1ccc2n[nH]nc2c1)N1CCN(c2ccc(C(F)(F)F)cn2)CC1	inactive
CCc1ccccc1OCC(=O)N(CC)CC(=O)NCc1ccc(F)cc1	inactive
CCN(C(=O)COC(=O)c1cc2c(s1)CCC(C)C2)c1c(N)n(Cc2ccccc2)c(=O)[nH]c1=O (configuration not stated)	inconclusive: 22.4 µM [inhibitor, single point]
Cc1cccc(N(C(=O)CCC(=O)Nc2nccs2)C(C(=O)NC(C)(C)C)c2ccc(O)cc2)c1 (configuration not stated)	inconclusive: 3.16 µM [inhibitor, partial curve, poor fit]
Cc1ccc(NC(=O)CSCC(=O)N2CCN(Cc3ccc4c(c3)OCO4)CC2)cc1	inactive
COc1ccc(-c2ccc(SCC(=O)NCc3ccco3)nn2)cc1OC	inconclusive: 6.31 µM [inhibitor, single point]
NC(=O)c1ccccc1NC(=O)/C=C/c1c(Cl)cccc1Cl	inactive
CCCN(CCC)C(=O)C1CCCN(S(=O)(=O)c2cc(Br)cc3c2N(C(=O)CC)CC3)C1 (configuration not stated)	inconclusive: 3.55 µM [inhibitor, single point]

SMILES	Potency
Cc1ccc(NC(=O)c2ccc(OCC3CCCO3)cc2)c(C)c1 (configuration not stated)	inconclusive: 3.16 µM [inhibitor, single point]
CCn1c(N2CCN(C(=O)C34CC5CC(CC(C5)C3)C4)CC2)nc2ccccc21	inconclusive: 28.2 µM [inhibitor, partial curve, poor fit]
CC(=O)Nc1ccc(NC(=O)C(c2ccccc2)N2Cc3ccccc3C2=O)cc1 (configuration not stated)	inactive
Cc1ccc(C(C)C)c(OCC(=O)N/N=C/c2cccn2C)c1	inconclusive: 35.5 µM [inhibitor, single point]
CCC(=O)N/N=C/c1ccc(-c2ccc([N+](=O)[O-])cc2)o1	inactive
N=c1sccn1CC(=O)NC(=O)NC1CCCC1	inconclusive: 5.62 µM [inhibitor, single point]
O=C(CSc1nc2[nH]ncc2c(=O)[nH]1)NCc1ccccc1	inactive
COc1ccc(C(=O)/C=C/c2cccnc2)c(OC)c1	inconclusive: 22.4 µM [inhibitor, single point]
NCc1csc(Nc2nncc3ccccc23)n1	inconclusive: 20 µM [inhibitor, partial curve, poor fit]
CCOC(=O)N1CCN(C(=O)c2ccc3c(c2)N(Cc2cccc(Cl)c2)C(=O)c2ccccc2S3=O)CC1 (configuration not stated)	inconclusive: 25.1 µM [inhibitor, single point]
CC(=O)c1ccc(C(=O)N(Cc2cccnc2)c2nc3c(C)c(C)ccc3s2)cc1	inconclusive: 35.5 µM [inhibitor, partial curve, poor fit]
Cc1cccc(S(=O)(=O)N(C)C[C@@H]2OCc3cnnn3CCCC(=O)N([C@@H](C)CO)C[C@@H]2C)c1	inactive
O=C(Nc1ccc(C(=O)N2CCCC2)cc1)c1ccccc1Br	inactive
O=C1CN(C(=O)COc2ccc(Cl)cc2)C(c2ccc(F)cc2)c2cc(Cl)ccc2N1 (configuration not stated)	inconclusive: 20 µM [inhibitor, single point]
CCc1ccc(S(=O)(=O)N2CC(=O)Nc3ccccc32)cc1	inactive
c1ccc2c(c1)CC/C2=N/Nc1nc2ccccc2[nH]1	inconclusive: 20 µM [inhibitor, partial curve, poor fit]
COc1cc(CC(=O)N(C)CC(=O)Nc2cc(C)ccc2C)cc(OC)c1OC	inactive
Nc1c(C(=O)O)sc2nc(-c3ccccc3)cc(-c3ccc(Cl)cc3)c12	inactive
CCOc1ccc(NC(=O)C2CCN(S(=O)(=O)c3c(C)noc3/C=C/c3ccco3)CC2)cc1	inconclusive: 1.26 µM [inhibitor, full curve]
CC12CCC(C(=O)Nc3cccc(NC(=O)C45CCC(C)(C(=O)O4)C5(C)C)n3)(OC1=O)C2(C)C	inactive
COc1ccccc1C(=O)NC(CCSC)C(=O)NCC(c1ccco1)N(C)C (configuration not stated)	inconclusive: 2.82 µM [inhibitor, partial curve, poor fit]
CCOC(=O)c1ccccc1NC(=O)N1CC(C)Oc2ccc(C)cc21 (configuration not stated)	inconclusive: 35.5 µM [inhibitor, single point]
C/C(=N\N=C(N)N)c1ccc(Cl)c(Cl)c1	inconclusive: 35.5 µM [inhibitor, single point]

SMILES	Potency
Cc1ccc(-c2ccc(CN3C(C(C)C)C(=O)N(Cc4cn(CCC5OCCO5)nn4)CCS3(=O)=O)cc2)cc1 (configuration not stated)	inconclusive: 35.5 µM [inhibitor, single point]
CC(c1ccccc1)N(CC(=O)NC1CCCCC1)S(=O)(=O)c1cccc(C(F)(F)F)c1 (configuration not stated)	inconclusive: 22.4 µM [inhibitor, partial curve, poor fit]
CC(C)CCNC(=O)CN(C(=O)CCC(=O)Nc1nccs1)C1CCCCC1	inconclusive: 22.4 µM [inhibitor, single point]
Cc1c(Cl)cccc1NS(=O)(=O)c1ccc(NS(=O)(=O)c2ccc3c(c2)OCCO3)cc1	active: 15.8 µM
CCOc1ccc(N(C)S(=O)(=O)c2ccc3[nH]cc(C(=O)NCC4CCCO4)c(=O)c3c2)cc1 (configuration not stated)	inactive
COc1ccc(/C=C/C(=O)N/C(=C\c2ccco2)C(=O)NCCc2nc3ccccc3[nH]2)cc1	inconclusive: 11.2 µM [inhibitor, partial curve, poor fit]
O=C(c1ccccc1F)N1c2nc(-c3ccco3)nn2C2(CCCCC2)[C@@H]2CCCC[C@@H]21	inconclusive: 35.5 µM [inhibitor, single point]
Cc1sc(NC(=S)Nc2ccc(F)cc2)c(C(N)=O)c1C	inactive
Oc1ccc(Br)cc1CNc1cnc2ccccc2c1	inconclusive: 22.4 µM [inhibitor, single point]
CC1CN(C2CCCCC2)c2nc3c(c(=O)[nH]c(=O)n3C)n2C1 (configuration not stated)	inconclusive: 0.1 µM [inhibitor, full curve, poor fit]
CCCCOc1ccc(OCCSc2nc3ccccc3n2CC(=O)O)cc1	inactive
COc1ccccc1N(C)S(=O)(=O)c1ccc(C(=O)Nc2ccc(N3CCOCC3)cc2)cc1	inactive
COc1ccc(CNC(=O)c2ccc(-c3ccc(F)c(F)c3)c3ccoc23)cc1OC	inconclusive: 14.1 µM [inhibitor, single point]
CN(CC(=O)Nc1ccc(F)c(F)c1F)C(=O)C1(c2ccccc2)CC1	inactive
O=C(O)[C@H](Cc1ccccc1)NC(=O)N1CCN(c2cccc(C(F)(F)F)c2)CC1	inactive
O=[N+]([O-])c1ccc(Nc2ccccc2O)c([N+](=O)[O-])c1	inconclusive: 35.5 µM [inhibitor, single point]
CCC1CCCCN1C(=O)CSc1nc2ccsc2c(=O)n1Cc1ccccc1 (configuration not stated)	inactive
CCc1cccc(C)c1NC(=O)c1cc(S(=O)(=O)N2CCCCCC2)cn1C	inactive
O=S(=O)(Nc1cc2nc3ccccc3nc2n1Cc1ccccc1)c1ccc(Cl)cc1	inconclusive: 22.4 µM [inhibitor, single point]
O=C(NC1CC1)c1ccc(Cn2c(SCc3ccc(F)cc3)nc3cccnc32)cc1	inconclusive: 0.562 µM [inhibitor, full curve, poor fit]
COCCn1c(CN(C)Cc2ccccc2)nc2c1c(=O)n(C)c(=O)n2C	inactive
